# The supplement of paper PMC10126150
# Sequences with one replicate were seen in a single cluster, so their values are uncertain.
# System: ATP
# Assay: switch fluorescence ratio, 500 uM ATP over buffer (Cy3 cluster intensity, sum of 5 cycles each) (fold (ratio)); higher = stronger signal-on switching upon ATP binding; sequences stand for … in TCGTCGGCAGCGTCAGATGTGTATAAGAGACAGTTTTTTTTTTTTTTTTTTTTTTTTT…TC
# Details: aptamer strand: ATP DNA aptamer (quencher-CACCTGGGGGAGTATTGCGGAGGAAGG + anchor), 100 nM annealed; ATP concentration: 500 uM; one replicate
# Method in brief: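 Switching-strand clusters labelled with Cy3 on a modified Illumina MiSeq flow-cell were annealed to 100 nM quencher-labelled ATP aptamer, imaged in selection buffer, and re-imaged after 15 min with 500 uM ATP at 22 °C. This was done over five cycles with NaOH stripping and re-annealing in between. The fluorescence ratio is summed target-cycle over summed buffer-cycle Cy3 intensity per cluster, averaged per switch-domain sequence, excluding clusters outside 100-1000 RFU.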
# 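Note: ATP exposure 15 min at 22 °C before imaging.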
row,Sequence,switch fluorescence ratio
1,ACGTGGAGTA,1
2,GAAAAACTTT,1.01
3,GAGGATAAGG,1
4,ACTCATTTCG,1.04
5,CGCGTGAAAA,1.04
6,CCTGACTAGC,1.78
7,TTGAAAAGTG,1.26
8,TTTGGGCCAA,0.987
9,CATCTCTACG,1.02
10,TGCCCTAGGA,1.03
11,TGATTCTTCA,1.02
12,TCGGATTGT,0.944
13,CATAGGGTGT,1.03
14,AGGTTAAGTG,0.987
15,AGCGTAAAAA,0.97
16,CCTAGGTGTT,1.99
17,TATTTCTATC,1.01
18,AACATTCCTG,1.25
19,CATGCCGT,0.919
20,AGAATGTCAC,1.02
21,CAAATAGATC,0.968
22,GGCGATAGGT,1.01
23,CCTCTGGGTG,4.64
24,TATTGGCGGA,1.05
25,CTTGCGCATA,3.16
26,ATTCGGGCTC,0.994

row,Sequence,switch fluorescence ratio
1,GCACTCAGTG,1.01
2,CATGACAAAT,0.984
3,CCTAGCTATT,1.43
4,ACTGTATGGG,1.14
5,AGGATGCGCT,0.991
6,TTTACTCTAA,1.11
7,CGCGGCCTTT,1.01
8,CAGTTAGGCA,0.949
9,GTATGAGGTC,0.943
10,TGTCTGACAG,1.04
11,ATACGATAGG,1.05
12,AGGAAGGGCA,0.958
13,CACGGACCGG,0.956
14,GTTTGCTAGG,1.01
15,AAAAGTAATG,1.02
16,GTTTTGGGCG,1.01
17,AAGTTGCTGC,1.05
18,GAGCCTATAT,1.03
19,CTGCTGAGTG,1.02
20,TTGGCAAAAA,1.02
21,TCTGACTGCG,1.04
22,TTGACATTCC,2.24
23,TTTGGTTCCA,0.996
24,CTAAACCATC,1.06
25,ATCCTTTGGG,0.99
26,TCATACGCAC,4.04

row,Sequence,switch fluorescence ratio
1,ATCGTCCCT,1.06
2,TAAATTGTTA,0.97
3,CGTTCGATGG,1.01
4,CACTTCTTGG,0.965
5,ATGGTCCTGA,0.99
6,AACGAACCAA,1.28
7,GTTGTAATGA,0.953
8,AGTTCGTGTG,0.985
9,CATCTTTCCG,1.01
10,CCTCTGAGCA,2.63
11,GTGAATGCAG,1.04
12,CGTGCCACGG,0.996
13,GTAGCCAGGA,0.995
14,AATCTTCAAA,1.07
15,TATTGATC,1.02
16,GCATTGGCTT,0.98
17,GGGTAAGGTC,0.961
18,TTGCATTTTA,0.943
19,GCTAGATCTA,0.979
20,CAAATCTTAG,1.01
21,ACTTCGGCGG,1.03
22,GATATCCGAT,0.97
23,TGTTCTGAAT,1
24,TTCGGTGGGC,0.959
25,TCAGTGAACC,1.11
26,ACGGACTTG,1.05

row,Sequence,switch fluorescence ratio
1,AGGTTTGCTG,0.862
2,AGTGATGAAT,0.994
3,GCAAAGATCA,1.02
4,TGGATGGGTC,1.01
5,TCTTTGACAT,1.01
6,ATAGTTAC,1
7,GTCTTAGGG,0.948
8,CAACAGTTGG,1
9,GGCATCTACA,1.07
10,TTTAAGAA,0.987
11,TTGGGATATA,1.56
12,TACTTAGGG,1.04
13,TTCAATGAAT,1.03
14,AGTGGTTTCA,1.01
15,GATTTACCCC,1.16
16,ATCGGCACCC,1.04
17,CTCCGCGCCT,5.31
18,GCTGTAAGGT,1.01
19,TTGGGGGGC,1.02
20,CTAAGGGGA,1.02
21,AAAGCTTTAC,1.35
22,GGTGAATCGA,0.995
23,TCACCAAGAT,1.08
24,GGTGGGCGCG,0.978
25,AAAGTTTACC,1.05
26,AAAGGACCCG,1.13

row,Sequence,switch fluorescence ratio
1,ATCATACTTT,1.01
2,TTGTCGTCCG,0.985
3,GCAAGTTCGG,0.995
4,GGTTTGTTC,0.971
5,GTTGTGTACG,1.01
6,AGGGGCATTG,0.984
7,TAGGACTAC,1.06
8,GCCCAAGTTG,1.12
9,ATGAGAGGCA,1.01
10,GATTGGCGG,0.961
11,TTTGGCAGCA,1.44
12,CGAGGATATG,1.02
13,TCGAAAAATG,1
14,ATCGAAGTAG,1
15,GGCTGAAGGA,1
16,TTCTGGCTGT,0.991
17,TCAAAAAGTA,0.992
18,TTCAAAACAA,0.974
19,GAACGCGTGC,1.63
20,CGGCTCCGAA,1.03
21,AGGGCTGGGA,1.03
22,TTCGTTCAT,0.971
23,TACCTGTGA,0.96
24,ACACATTGTA,0.986
25,GCAGGGGCTT,1.03
26,GTGGGGTTAA,1

row,Sequence,switch fluorescence ratio
1,GGAACACTAA,1.02
2,ACTCGCAGAA,1.45
3,CACCGTTCTG,1.02
4,GCGCTATGCG,1.06
5,TCATCAAGAT,1.01
6,AGAAACACTT,1.03
7,AGTTGAGATT,1.01
8,GGGTAATCTG,0.992
9,GTGTTAAAAG,1
10,ACGAGATATG,1.01
11,CCTACCTCCT,1.77
12,CAGCTGCTTG,1.03
13,GGACTAACGG,1.06
14,CATTCCGTTA,1.57
15,TTTAGTTAGG,1.03
16,CTGAGTACCT,1.12
17,ACGTATGTAC,1.13
18,GGTTATCGCA,1.04
19,GTTACTCTTT,1.03
20,CGCGAGCGTC,1.02
21,ATAGACGTC,1.02
22,ATTTTGTGC,0.984
23,ATCATGCTTT,0.998
24,GTCACCCAAC,1.13
25,CGATCGTTAT,1.09
26,CTTTATAAGG,1.01

row,Sequence,switch fluorescence ratio
1,GTTGATATAC,1.01
2,TGGTTGAATG,1.01
3,TTTCTGATCG,1.38
4,ATGCTCTCAG,1
5,ACTGTGTGCG,1.02
6,TCCGGAACTC,1.55
7,TGGTTTAAAA,0.927
8,GGTACGTAGA,1.13
9,GCTTCCTCGG,3.12
10,CTCCGGGGTG,2.59
11,TGACCTCCAC,1.39
12,GGGTAGAGAA,1
13,GCATTGTATT,0.964
14,AGGCGATCGT,1.04
15,GGTCCAGAAA,0.978
16,AAGAGATGGG,1
17,CGCTTTTTAG,1.01
18,ATCTGTAGAA,1.01
19,GCTGTCAAGT,0.957
20,CTTGGCAAG,1
21,GAATTGGCT,0.898
22,ATAATTAGT,0.994
23,CTACCGCCGG,1.07
24,GACCATAGAC,1.05
25,TTAGCTCG,0.984
26,TGGGCTGTGT,0.985

row,Sequence,switch fluorescence ratio
1,AGCGTCGAGA,0.962
2,TTGATTAAC,0.955
3,AGGAGATTGT,1.03
4,CCTTCTATTC,1.15
5,CCACTTATTG,1.01
6,CATGTGTGA,0.964
7,CGGACAAGAT,1.72
8,TATAGGAGAA,0.979
9,AAAATCTGAT,0.993
10,AATCATCCAT,1.05
11,GCAAGTAGGT,1.04
12,TACATGATAG,1.02
13,TAAGACTTGT,0.993
14,TTGAGTTTCA,0.976
15,CGTTACTTGC,0.99
16,CGCATCGCTT,1.02
17,TAACTGTGTG,0.988
18,GTGTCAGCTA,1.02
19,TACGGGGTAT,0.972
